# Data as given in PubChem BioAssay AID651820 (National Center for Advancing Translational Sciences (NCATS), 2012).
# Hit rate of the full screen: of about 340,000 compounds, about 12,000 (3.5%) were called active. This list was built around the results that the source calls inconclusive (neither active nor inactive); the mix of calls is not that of the screen. Calls come from the whole dose curve; as a rule, active = well fitted inhibition curve with a large enough effect; inconclusive = small, poorly fitted or top-dose-only effect, or another doubt; inactive = no such curve, though single readings can be large or run the other way. Potencies of inconclusive entries are left out as doubtful fits.
# Test: qHTS Assay for Inhibitors of Hepatitis C Virus (HCV)
# Details: Huh7.5.1 HCVcc-Cre (HCVcc is cell-culture hepatitis C virus) infection, luciferase reporter, 44 h; activity change, negative = inhibition: at 41.8 µM (top of the series) unless noted
# Outline: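 Infectious HCV cell culture screen: compound-treated cells (1,000/well, pre-plated 4 h) are infected with HCVcc-Cre at roughly 0.5 moi and grown 44 h. Infection is quantified by luciferase signal after 15 min substrate incubation at room temperature.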
# % is set by controls: 0 for no effect and ±100 for the full control effect; potency is the fitted concentration of half-maximal effect; tags give direction and shape of the fitted curve.
Compound,"activity change, negative = inhibition",Potency
COc1ccc(CCN2CC(C(=O)NCCc3ccccc3)CC2=O)cc1OC (stereo not given),inactive: 15.7%,–
COc1ccc(-c2csc(Nc3cc(C)ccn3)n2)cc1C,–,active: 12.6 µM
CCC(=O)c1cc2c(cc1NC(=O)c1ccc(C)cc1)OCCO2,–,"inconclusive [inhibitor, full curve, poor fit]"
O=[N+]([O-])c1nn(-c2ccc3c(c2)OCCO3)n(O)c1=Nc1ccc(Cl)cc1,–,active: 7.08 µM
O=C(c1cc(COc2ccc(F)cc2Cl)on1)N1CCCC(OCc2cccnc2)C1 (stereo not given),–,"inconclusive [inhibitor, single point]"
CCOC(=O)c1sc(NC(=O)CCCn2nc([N+](=O)[O-])cc2C)c(C(=O)OCC)c1C,–,"inconclusive [inhibitor, full curve, poor fit]"
FC(F)(F)c1ccc2c(c1)ncn2C1CCN(Cc2nnnn2C2CCCCC2)CC1,–,"inconclusive [inhibitor, partial curve]"
O=C(NCCSSCCNC(=O)c1ccccc1)c1ccccc1,–,"inconclusive [inhibitor, single point]"
CN(C)S(=O)(=O)c1cccc(NC(=O)CSc2nncn2-c2ccccc2)c1,–,"inconclusive [inhibitor, single point]"
CCN(CC)c1ccc(C(=O)OCc2cc(=O)oc3cc(O)ccc23)cc1,–,active: 22.4 µM
CCN(CC)CCNC(=O)C(=O)Nc1cc2c3c(c1)CCC(=O)N3CCC2,inactive: -10.5%,–
CCN1CCN(c2cc(N3CCCC3)c([N+](=O)[O-])cc2F)CC1,–,"inconclusive [inhibitor, single point]"
Cc1ccccc1OC1CCN(C(=O)C2CCC(=O)N(C3CCCC3)C2)CC1 (stereo not given),–,"inconclusive [inhibitor, single point]"
C=CCOC(=O)COc1cc(C)cc2oc(=O)c3c(c12)CCC3,inactive: -28.6%,–
Cc1cc(C)n(CCN(C)C(=O)CCc2nnc(-c3ccc4c(c3)OCO4)o2)n1,inactive: -4.62%,–
C=CCN(CC=C)C(=S)NC(=O)c1ccc(OC)c(Br)c1,inactive: -29.7%,–
CC(C)NC(=O)COC(=O)C1CSC2(c3ccc(Br)cc3)CCC(=O)N12 (stereo not given),–,"inconclusive [inhibitor, partial curve]"
Cc1noc(/C=C/N(C)C)c1S(=O)(=O)N1CCCC(C(=O)NCCC2=CCCCC2)C1 (stereo not given),–,"inconclusive [inhibitor, single point]"
Cc1cccc(C)c1OCCNC(=O)c1ccc2ccccc2n1,–,"inconclusive [inhibitor, single point]"
CCOC(=O)c1ccc(CN2Cc3ccccc3C2=O)cc1,–,"inconclusive [inhibitor, full curve, poor fit]"
COc1ccc(CC(=O)Nc2nc(C(C)(C)C)cs2)cc1,–,active: 10 µM
O=C(CSc1ccc(-c2ccc(F)cc2)nn1)Nc1ccc2c(c1)OCCO2,–,"inconclusive [inhibitor, single point]"
CC(=O)Nc1ccc(S(=O)(=O)NCC(=O)OCC(=O)NC(=O)c2cccn2C)cc1,–,"inconclusive [inhibitor, single point]"
COc1ccc(Cl)cc1-c1nc(-c2ccc(NC(=O)c3cccs3)cc2)no1,–,"inconclusive [inhibitor, partial curve]"

Compound,"activity change, negative = inhibition",Potency
Oc1c(C(Nc2nc3ccccc3s2)c2ccco2)ccc2cccnc12 (stereo not given),–,active: 2.51 µM
Cc1cnn(C(=S)NCCc2ccccc2)c1,inactive: 4.5%,–
O=C(NCCCNC(=O)c1ccccc1)c1ccccc1,inactive: -2.7%,–
O=c1c2cn[nH]c2nc(SCc2ccccc2F)n1-c1ccc(Br)cc1,–,"inconclusive [inhibitor, single point]"
COc1ccc2c(c1)C(SCC(=O)NCCc1ccc(Cl)cc1)CC(C)(C)O2 (stereo not given),–,"inconclusive [inhibitor, partial curve]"
COC(=O)c1c(NC(=O)CSc2ncnc3c2cnn3-c2ccccc2Cl)sc2c1CCCC2,–,"inconclusive [inhibitor, partial curve]"
CNC(=O)c1c(O)c2cccc3c2n(c1=O)CCC3,–,"inconclusive [inhibitor, partial curve, poor fit]"
COc1ccc(CNc2ccc(-c3ccc(OC)cc3)nn2)cc1,–,"inconclusive [inhibitor, single point]"
CN1CCN(c2ccc(S(=O)(=O)N3CCCCC3)cc2NC(=O)/C=C/c2ccc(OC(F)F)cc2)CC1,–,"inconclusive [inhibitor, single point]"
CCN(CC)CCNC(C(=O)Nc1ccc([N+](=O)[O-])cc1Br)c1ccccc1 (stereo not given),–,"inconclusive [inhibitor, partial curve, poor fit]"
N#C/C(=C\c1ccccc1)C(=O)NNS(=O)(=O)c1ccc(Br)cc1,inactive: 10.6%,–
CC(Sc1nnc(Cc2cccs2)n1C1CCCCC1)C(=O)N1CCc2ccccc21 (stereo not given),–,"inconclusive [inhibitor, partial curve]"
NC(=O)c1ccsc1NC(=O)COC(=O)Cc1cccc2ccccc12,–,"inconclusive [inhibitor, partial curve]"
COc1ccc(C(C)(C)C)cc1NC(=O)c1[nH]c(C)c(C(C)=O)c1C,–,"inconclusive [inhibitor, partial curve]"
Cc1ccc(O)c(C(=O)c2cc(C(=O)NCCC(C)C)c(=O)n(CCC(C)C)c2)c1,–,active: 10 µM
Cc1cc2ccccc2nc1SCC(=O)N1c2ccccc2CC1C (stereo not given),inactive: 1.26%,–
COc1ccc(OCC(=O)N/N=C(\C)c2cc3ccccc3o2)cc1,–,"inconclusive [inhibitor, single point]"
COc1ccc(-c2[nH]ncc2CNCCc2ncccc2C)cc1F,–,"inconclusive [inhibitor, partial curve]"
COc1ccc(N2CCN(C(=O)c3cc4c(s3)-c3ccccc3S(=O)(=O)C4)CC2)cc1,–,active: 10 µM
CC(=O)Nc1ccc(CCNC(=O)c2ccc3ccccc3c2O)cc1,–,"inconclusive [inhibitor, partial curve]"
CC(=O)OCCNc1cc(SCc2ccco2)c2nonc2c1[N+](=O)[O-],–,"inconclusive [inhibitor, single point]"
CC1(C)Oc2ccc3ccc(=O)oc3c2[C@@H](O)[C@H]1O,–,active: 3.16 µM
COc1cc(OC)cc(-c2nnc(SCC(=O)N3CCCc4ccccc43)o2)c1,–,"inconclusive [inhibitor, full curve, poor fit]"
COc1ccc2nc(C)cc(SCC(=O)N/N=C/c3ccc(O)cc3O)c2c1,–,active: 12.6 µM

Compound,"activity change, negative = inhibition",Potency
CC(C)N(Cc1nc(-c2ccccc2)no1)S(=O)(=O)c1ccccc1,–,"inconclusive [inhibitor, single point]"
COc1cccc(N(C(=O)Cn2nnc(-c3ccc(Cl)cc3)n2)C(C(=O)NCC2CCCO2)c2ccc(C)cc2)c1 (stereo not given),inactive: 17.8%,–
COc1ccc(COC(=O)c2ccc(Cl)c(S(=O)(=O)N3CC(C)OC(C)C3)c2)cc1 (stereo not given),–,active: 14.1 µM
CSc1nc2c(c(=O)[nH]1)C(c1cccc(Cl)c1)CC(=O)N2 (stereo not given),inactive: 18.1%,–
CCn1nc(C(=O)N2CCc3ccccc32)c2ccccc2c1=O,inactive: 6.93%,–
COc1ccccc1CC1CC(=O)N(c2ccccc2)C1=O (stereo not given),inactive: 5.56%,–
CSc1nc(C2CC2)cc(-c2cccs2)c1C#N,–,active: 11.2 µM
O=C(CN1c2ccccc2Sc2ccccc21)NNC(=S)Nc1ccc(Cl)cc1,–,active: 35.5 µM
COc1cc2nc(N3CCN(C(=O)OCc4ccccc4)[C@H](C(=O)NC(C)(C)C)C3)nc(N)c2cc1OC,–,"inconclusive [inhibitor, single point]"
c1ccc(CCCN2CCN(c3ccccc3)CC2)cc1,inactive: 17.1%,–
Cc1ccc(NS(=O)(=O)c2cc(C(=O)NCc3ccncc3)ccc2C)cc1,–,"inconclusive [inhibitor, single point]"
Cc1onc(-c2ccccc2)c1C(=O)NC(=S)Nc1sc2c(c1C#N)CCC(C)C2 (stereo not given),–,"inconclusive [inhibitor, partial curve]"
CC(C)NC(=O)N(C)C[C@@H]1Oc2c(NC(=O)C3CCOCC3)cccc2C(=O)N([C@@H](C)CO)C[C@H]1C,inactive: 4.55%,–
CCOC(=O)CSc1nc2ccc(N3CCOCC3)cc2c(=O)n1Cc1ccccc1,–,active: 2.82 µM
CCOc1cc(/C=N/O)cc(Br)c1OCC,–,"inconclusive [inhibitor, partial curve]"
CN1/C(=C\C(=S)Nc2ccccc2)C(C)(C)c2ccccc21,–,"inconclusive [inhibitor, single point]"
Cc1ccc2oc(-c3cccc(NC(=O)C4CCCO4)c3)nc2c1 (stereo not given),–,"inconclusive [inhibitor, single point]"
COc1cc(C(=O)NCC2CCCO2)ccc1OCc1ccc(Cl)cc1 (stereo not given),–,"inconclusive [inhibitor, single point]"
CC(=O)c1cccc(NC(=O)CN(C)S(=O)(=O)c2ccccc2)c1,–,"inconclusive [inhibitor, full curve, poor fit]"
Cc1ccc(N2CCC(N3CCN(C4CCCCC4)C(CCO)C3)CC2)cc1 (stereo not given),–,"inconclusive [inhibitor, single point]"
C=C1CC(COc2ccc3c(C)c(Cl)c(=O)oc3c2)(c2ccccc2)OC1=O (stereo not given),–,"inconclusive [inhibitor, single point]"
COc1ccc(-c2cc(C(=O)N3CCCc4ccccc43)no2)cc1OC,–,"inconclusive [inhibitor, single point]"
